# Results reported in PubChem BioAssay (NCATS).
# Some of the results follow. Shown are side measurements of this screen, not its main read-out; they come without a call. For some of these results: The list favours compounds with an active or inconclusive main result. For some of these results: The note in brackets gives the kind of curve behind each potency; many fits are weak.
# Experiment: qHTS drug screen for cell cycle checkpoint inhibitors in PARPi-resistant BRCA-mutant ovarian cancer cell lines. (AID 1963452)
# Details: PEO1/OlaR viability, CellTiter-Glo luminescence, 96 h; measured here: PEO4 viability
# Summary of the method: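 PEO1, PEO4 and PEO1/OlaR ovarian cancer cells, 600 per well, exposed 96 h at 37C to a dilution series. Viability read by CellTiter-Glo luminescence, normalized to DMSO and empty wells; activity summarized as Z-AUC.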
# Tags describe the fitted curve by direction and shape.
row,SMILES,AC50
1,c1ccc(Cn2c(-c3ccc(OCC(C4CCNCC4)n4c(-c5ccccc5)nc5ccccc54)cc3)nc3ccccc32)cc1 (configuration not stated),"6.92 µM [falling, partial curve]"
2,Nc1nccc(Oc2ccc(NC(=O)c3c[nH]cc(-c4ccc(F)cc4)c3=O)cc2F)c1Cl,"12.3 µM [falling, partial curve]"
3,Fc1ccc2[nH]ccc2c1-c1nc(N2CCOCC2)c2sc(CN3CCN(CC4CC4)CC3)cc2n1,"15.5 µM [falling, partial curve]"
4,C=CC(=O)Nc1cccc(Nc2nc(Nc3ccc(Oc4ccnc(C(=O)NC)c4)cc3)ncc2F)c1,"9.77 µM [falling, partial curve, poor fit]"
5,Nc1ncnc2c1c(-c1cccc(OCc3ccccc3)c1)cn2C1CC(CN2CCC2)C1 (configuration not stated),"3.89 µM [falling, partial curve]"
6,Cc1cc(O)c(-c2ccc([C@@H](C)CN(C)C)cc2)c2c1[nH]c(=O)c1sccc12,"0.174 µM [falling, full curve]"
7,CCNC(=O)C#Cc1ccc2c(C(=Nc3ccc(CN(C)C)cc3)c3ccccc3)c(O)[nH]c2c1,"0.0952 µM [falling, full curve]"
8,CC[C@@H]1C(=O)N(C)c2cnc(Nc3ccc(C(=O)NC4CCN(C)CC4)cc3OC)nc2N1C1CCCC1,"0.0174 µM [falling, full curve]"
9,CCS(=O)(=O)c1cccc(-c2cc(C(=O)NC3CCN(C)CC3)c(C)c3[nH]c4ncc(C)cc4c23)c1,"1.95 µM [falling, full curve]"
10,CNC1CCC(N(Cc2cccc(-c3ccncc3)c2)C(=O)c2sc3ccccc3c2Cl)CC1 (configuration not stated),"21.9 µM [falling, single point]"
11,CC(C)CNc1ccnc(NCc2csc(-c3ccccc3)n2)n1,"19.5 µM [falling, single point]"
12,CN1CCN(CCOc2cc(OC3CCOCC3)c3c(Nc4c(Cl)ccc5c4OCO5)ncnc3c2)CC1,"19.5 µM [falling, partial curve]"
13,Cc1cnc(Nc2ccc(OCCN3CCCC3)cc2)nc1Nc1cccc(S(=O)(=O)NC(C)(C)C)c1,"5.49 µM [falling, partial curve]"
14,CCn1cc(-c2ccnc3[nH]c(-c4cccc(CN(C)C)c4)cc23)c(-c2ccc(NC(=O)N(C)C)cc2)n1,"5.49 µM [falling, partial curve]"
15,C=CC(=O)Nc1cccc(Oc2nc(Nc3ccc(N4CCN(C)CC4)cc3)ncc2Cl)c1,"1.23 µM [falling, full curve]"
16,COc1cc(N2CCC(N)CC2)ccc1Nc1ncc(Cl)c(-c2c[nH]c3ccccc23)n1,"0.616 µM [falling, full curve]"
17,Cc1c[nH]c2ncnc(N3CCC(CN)(C(=O)Nc4cccc(OC(=O)N(C)C)c4)CC3)c12,"24.5 µM [falling, single point]"

# Experiment: qHTS for identification of novel therapeutic agents for treatment of microphthalmiaassociated transcription factor (MiT) renal cell carcinoma (RCC) (AID 1963991);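 further: curves scaled with 100% = DMSO viability and 0% = empty wells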
# Details: TFE3-RCC UOK109 viability, CellTiter-Glo, 48 h; measured here: UOK109 Z-AUC; stronger effect = lower value
# Summary of the method: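 UOK109/UOK124/UOK145 (TFE3 fusions, three partners); 500 cells/well; MIPE v4.0, 1912 cpds, 11 conc.; 48 h, 37 C; CellTiter-Glo, 15 min RT; lum. Norm.: DMSO 100%, empty 0%.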
row,SMILES,z-score
1,Nc1nccc(Oc2ccc(NC(=O)c3c[nH]cc(-c4ccc(F)cc4)c3=O)cc2F)c1Cl,0.372
2,Nc1ncnc2c1c(-c1cccc(OCc3ccccc3)c1)cn2C1CC(CN2CCC2)C1 (configuration not stated),0.295
3,CCS(=O)(=O)c1cccc(-c2cc(C(=O)NC3CCN(C)CC3)c(C)c3[nH]c4ncc(C)cc4c23)c1,-0.579
4,CNC1CCC(N(Cc2cccc(-c3ccncc3)c2)C(=O)c2sc3ccccc3c2Cl)CC1 (configuration not stated),0.0961
5,CC(C)CNc1ccnc(NCc2csc(-c3ccccc3)n2)n1,-0.145
6,CN1CCN(CCOc2cc(OC3CCOCC3)c3c(Nc4c(Cl)ccc5c4OCO5)ncnc3c2)CC1,-1.98
7,COc1cc2c(cc1OC)CN(CCc1ccc(NC(=O)c3cccc4c(=O)c5cccc(OC)c5[nH]c34)cc1)CC2,-0.648
8,Cc1cnc(Nc2ccc(OCCN3CCCC3)cc2)nc1Nc1cccc(S(=O)(=O)NC(C)(C)C)c1,0.72
9,CCn1cc(-c2ccnc3[nH]c(-c4cccc(CN(C)C)c4)cc23)c(-c2ccc(NC(=O)N(C)C)cc2)n1,-0.057
10,NC(=O)c1cnc(-c2ccc(C3(N)CCC3)cc2)c(-c2ccccc2)c1,-0.105

# Same assay, conditions: TFE3-RCC viability, CellTiter-Glo, 48 h; measured here: UOK124 Z-AUC; stronger effect = lower value
row,SMILES,z-score
1,Nc1nccc(Oc2ccc(NC(=O)c3c[nH]cc(-c4ccc(F)cc4)c3=O)cc2F)c1Cl,1.08
2,Nc1ncnc2c1c(-c1cccc(OCc3ccccc3)c1)cn2C1CC(CN2CCC2)C1 (configuration not stated),0.0186
3,CCS(=O)(=O)c1cccc(-c2cc(C(=O)NC3CCN(C)CC3)c(C)c3[nH]c4ncc(C)cc4c23)c1,-0.881
4,CNC1CCC(N(Cc2cccc(-c3ccncc3)c2)C(=O)c2sc3ccccc3c2Cl)CC1 (configuration not stated),-0.478
5,CC(C)CNc1ccnc(NCc2csc(-c3ccccc3)n2)n1,-0.511
6,CN1CCN(CCOc2cc(OC3CCOCC3)c3c(Nc4c(Cl)ccc5c4OCO5)ncnc3c2)CC1,-0.156
7,COc1cc2c(cc1OC)CN(CCc1ccc(NC(=O)c3cccc4c(=O)c5cccc(OC)c5[nH]c34)cc1)CC2,0.81
8,Cc1cnc(Nc2ccc(OCCN3CCCC3)cc2)nc1Nc1cccc(S(=O)(=O)NC(C)(C)C)c1,0.182
9,CCn1cc(-c2ccnc3[nH]c(-c4cccc(CN(C)C)c4)cc23)c(-c2ccc(NC(=O)N(C)C)cc2)n1,-1.98
10,NC(=O)c1cnc(-c2ccc(C3(N)CCC3)cc2)c(-c2ccccc2)c1,-0.855
